Compound in the experiment: COc1ccc(C2=N[C@@H](c3ccc(Cl)cc3)[C@@H](c3ccc(Cl)cc3)N2C(=O)N2CCNC(=O)C2)c(OC(C)C)c1 [Nutlin-3a]
In words: Viability of human cancer cell lines after 72 h of drug (GDSC screen). The procedure: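 Human cancer cell lines in 384-well plates, medium with 10% serum, drug for 72 h over a 256-fold dose range (nine 2-fold or five 4-fold steps up to the top dose). Adherent lines were fixed and stained with the nucleic acid dye Syto60, suspension lines read with resazurin; signal relative to control wells, capped at 0 and 100%. One two-parameter sigmoid per drug and line, fitted in a mixed model over all curves with the slope shared within a line.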

By IC50 is meant the dose at which the fit gives 50% viability; a fit beyond the top or the lowest dose is shown as a bound at that dose. For AUC the same curve is integrated over the 256-fold range of doses and scaled to a fraction; the more sensitive the line, the further below 1.

Broadly, the IC50 is the point on the concentration scale where inhibition reaches its midpoint. With “EVSA-T (breast, adherent, top dose 8 µM)”, the AUC is 0.991 and the IC50 is > 8 µM.

Take “EW-1 (Ewing sarcoma, semi-adherent, top dose 8 µM)”: the AUC turned out to be 0.989 and the IC50 is > 8 µM.

For the cell line “EW-3 (Ewing sarcoma, adherent, top dose 8 µM)”, the AUC stood at 0.95 and the IC50 is > 8 µM.

On to “EW-7 (Ewing sarcoma, semi-adherent, top dose 8 µM)”, for which the AUC was determined as 0.909 and the IC50 was > 8 µM.

For “EW-11 (Ewing sarcoma, adherent, top dose 8 µM)”, the AUC was 0.979 and the IC50 was > 8 µM.

With “EW-13 (Ewing sarcoma, suspension, top dose 8 µM)”, the AUC was determined as 0.985 and the IC50 was > 8 µM.

Consider “EW-16 (Ewing sarcoma, adherent, top dose 8 µM)”, for which the AUC was 0.874 and the IC50 was > 8 µM.

In the case of “EW-18 (Ewing sarcoma, suspension, top dose 8 µM)”, the AUC amounted to 0.958 and the IC50 was > 8 µM.

In the case of “EW-22 (Ewing sarcoma, adherent, top dose 8 µM)”, the AUC is 0.988 and the IC50 was > 8 µM.

For “EW-24 (Ewing sarcoma, semi-adherent, top dose 8 µM)”, the AUC was determined as 0.992 and the IC50 was > 8 µM.

For the cell line “EoL-1-cell (haematopoietic neoplasm, suspension, top dose 8 µM)”, the AUC worked out at 0.746 and the IC50 stood at 2.29 µM.

Consider “FADU (head and neck, adherent, top dose 8 µM)”, for which the AUC came out at 0.981 and the IC50 is > 8 µM.

For the cell line “FLO-1 (oesophagus, adherent, top dose 8 µM)”, the AUC worked out at 0.97 and the IC50 is > 8 µM.

“FTC-133 (thyroid, adherent, top dose 8 µM)”: the AUC was 0.975 and the IC50 was > 8 µM.

In the case of FU97 (stomach, adherent, top dose 8 µM), the AUC is 0.985 and the IC50 is > 8 µM.

For “FU-OV-1 (ovary, adherent, top dose 8 µM)”, the AUC amounted to 0.962 and the IC50 was > 8 µM.

Take “Farage (B-cell lymphoma, suspension, top dose 8 µM)”: the AUC turned out to be 0.926 and the IC50 is > 8 µM.

Regarding “G-292 Clone A141B1 (osteosarcoma, adherent, top dose 8 µM)”, the AUC is 0.962 and the IC50 was > 8 µM.

As to “G-361 (melanoma, adherent, top dose 8 µM)”, the AUC came to 0.886 and the IC50 was > 8 µM.

With G-401 (kidney, adherent, top dose 8 µM), the AUC was found to be 0.791 and the IC50 is 3.99 µM.

In the case of “G-402 (soft tissue, adherent, top dose 8 µM)”, the AUC was 0.786 and the IC50 amounted to 4.75 µM.

As for “GA-10 (Burkitt lymphoma, suspension, top dose 8 µM)”, the AUC was 0.988 and the IC50 was > 8 µM.

In the case of GAK (melanoma, adherent, top dose 8 µM), the AUC is 0.949 and the IC50 was > 8 µM.

Turning to GAMG (glioma, adherent, top dose 8 µM), the AUC was 0.982 and the IC50 is > 8 µM.

Regarding GB-1 (glioma, adherent, top dose 8 µM), the AUC is 0.958 and the IC50 was > 8 µM.

Turning to GCIY (stomach, adherent, top dose 8 µM), the AUC turned out to be 0.98 and the IC50 was > 8 µM.

Regarding “GDM-1 (acute myeloid leukaemia, suspension, top dose 8 µM)”, the AUC worked out at 0.877 and the IC50 turned out to be 7.46 µM.

For the cell line GI-1 (glioma, adherent, top dose 8 µM), the AUC came out at 0.964 and the IC50 was > 8 µM.

For “GI-ME-N (neuroblastoma, adherent, top dose 8 µM)”, the AUC was 0.839 and the IC50 was > 8 µM.

Take “GMS-10 (glioma, adherent, top dose 8 µM)”: the AUC is 0.986 and the IC50 is > 8 µM.

For the cell line “GOTO (neuroblastoma, adherent, top dose 8 µM)”, the AUC came out at 0.808 and the IC50 amounted to 4.84 µM.

“GR-ST (lymphoblastic leukaemia, suspension, top dose 8 µM)”: the AUC was 0.914 and the IC50 was > 8 µM.

Turning to “GRANTA-519 (B-cell lymphoma, suspension, top dose 8 µM)”, the AUC is 0.852 and the IC50 stood at 5.25 µM.

For the cell line “GT3TKB (stomach, adherent, top dose 4 µM)”, the AUC was determined as 0.977 and the IC50 was > 4 µM.

In the case of H4 (glioma, adherent, top dose 8 µM), the AUC is 0.628 and the IC50 came out at 1.12 µM.

Take “H9 (lymphoid neoplasm, suspension, top dose 8 µM)”: the AUC turned out to be 0.992 and the IC50 is > 8 µM.

For “H290 (mesothelioma, adherent, top dose 8 µM)”, the AUC is 0.799 and the IC50 amounted to 3.48 µM.

Turning to “H2369 (mesothelioma, adherent, top dose 8 µM)”, the AUC worked out at 0.851 and the half-inhibitory concentration (IC50) is 6.47 µM.

As to “H2373 (mesothelioma, adherent, top dose 8 µM)”, the AUC was determined as 0.801 and the IC50 was 5.14 µM.

Take “H2461 (mesothelioma, adherent, top dose 8 µM)”: the AUC is 0.981 and the IC50 was > 8 µM.

In the case of “H2591 (mesothelioma, adherent, top dose 4 µM)”, the AUC is 0.817 and the IC50 amounted to 3.15 µM.

Take “H2595 (mesothelioma, adherent, top dose 8 µM)”: the AUC was 0.954 and the IC50 is > 8 µM.

“H2731 (mesothelioma, adherent, top dose 8 µM)”: the AUC worked out at 0.982 and the IC50 was > 8 µM.

Take “H2795 (mesothelioma, adherent, top dose 8 µM)”: the AUC is 0.759 and the IC50 worked out at 2.76 µM.

“H2869 (mesothelioma, adherent, top dose 8 µM)”: the AUC amounted to 0.908 and the IC50 is > 8 µM.

In the case of “H3118 (head and neck, adherent, top dose 8 µM)”, the AUC is 0.966 and the IC50 was > 8 µM.

“H3255 (lung adenocarcinoma, adherent, top dose 8 µM)”: the AUC is 0.961 and the IC50 is > 8 µM.

Take “H-EMC-SS (chondrosarcoma, adherent, top dose 8 µM)”: the AUC worked out at 0.798 and the IC50 stood at 5.18 µM.

For the cell line “HA7-RCC (kidney, adherent, top dose 8 µM)”, the AUC is 0.705 and the IC50 was 2.02 µM.

In the case of “HAL-01 (lymphoblastic leukaemia, suspension, top dose 8 µM)”, the AUC was 0.829 and the IC50 stood at 4.19 µM.

For “HARA (lung squamous cell carcinoma, adherent, top dose 8 µM)”, the AUC was 0.963 and the IC50 was > 8 µM.

With “HC-1 (hairy cell leukaemia, suspension, top dose 8 µM)”, the AUC was 0.907 and the IC50 is > 8 µM.

HCC38 (breast, adherent, top dose 8 µM): the AUC was 0.986 and the IC50 was > 8 µM.

Take “HCC202 (breast, adherent, top dose 8 µM)”: the AUC came to 0.98 and the IC50 was > 8 µM.

Consider “HCC1143 (breast, adherent, top dose 8 µM)”, for which the AUC turned out to be 0.968 and the IC50 was > 8 µM.

For “HCC1187 (breast, suspension, top dose 8 µM)”, the AUC turned out to be 0.976 and the IC50 was > 8 µM.

Regarding “HCC1395 (breast, adherent, top dose 8 µM)”, the AUC came to 0.979 and the IC50 is > 8 µM.

Regarding “HCC1419 (breast, adherent, top dose 8 µM)”, the AUC was 0.97 and the IC50 was > 8 µM.

As to “HCC1428 (breast, adherent, top dose 8 µM)”, the AUC worked out at 0.985 and the IC50 is > 8 µM.

As to “HCC1500 (breast, adherent, top dose 8 µM)”, the AUC stood at 0.962 and the IC50 was > 8 µM.

Turning to “HCC1569 (breast, adherent, top dose 8 µM)”, the AUC was found to be 0.934 and the IC50 is > 8 µM.

For the cell line “HCC1806 (breast, adherent, top dose 8 µM)”, the AUC was found to be 0.975 and the IC50 was > 8 µM.

Turning to “HCC1937 (breast, adherent, top dose 8 µM)”, the AUC was found to be 0.965 and the IC50 is > 8 µM.

“HCC1954 (breast, adherent, top dose 8 µM)”: the AUC came out at 0.898 and the IC50 was > 8 µM.

For “HCC2157 (breast, suspension, top dose 8 µM)”, the AUC is 0.985 and the IC50 is > 8 µM.

“HCC2218 (breast, suspension, top dose 8 µM)”: the AUC turned out to be 0.957 and the IC50 was > 8 µM.

For “HCC-15 (lung squamous cell carcinoma, adherent, top dose 8 µM)”, the AUC came out at 0.972 and the IC50 is > 8 µM.

As for “HCC-44 (lung adenocarcinoma, adherent, top dose 4 µM)”, the AUC turned out to be 0.982 and the 50% inhibitory concentration (IC50) was > 4 µM.

In the case of “HCC-56 (large intestine, adherent, top dose 8 µM)”, the AUC is 0.927 and the IC50 is > 8 µM.
